# Reference: the supplement of paper PMC12067230
# The data scatter; read single values as rough.
# Test: amyloid nucleation score relative to library mode (yeast Sup35 reporter selection) (log enrichment difference); higher = more amyloid nucleation; sequences are the first 22 residues of the Bri2 peptide extended by up to 12 random residues
# Conditions: random library (experiment): 1;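 active = nucleation score significantly above 0 at FDR 0.05; inactive = not significantly above 0 or absent from output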
# 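Further: [psi-pin-] Saccharomyces cerevisiae expressing SupN fusions, induced by 100 µM Cu2SO4, selected 7 d at 30 °C without adenine and uracil, scored by deep sequencing of output versus input.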
row,Sequence,amyloid nucleation score
1,EASNCFAIRHFENKFAVETLICMKGVSWGFCQLD,inactive
2,EASNCFAIRHFENKFAVETLICQPMSPICVSRSR,0.636
3,EASNCFAIRHFENKFAVETLICWKGVDSSWHPV,4.26
4,EASNCFAIRHFENKFAVETLICVSTLYSEVGVPR,-0.505
5,EASNCFAIRHFENKFAVETLICGRMSHRWSNYLG,inactive
6,EASNCFAIRHFENKFAVETLICFCLSKFSSGDTC,5.45
7,EASNCFAIRHFENKFAVETLICDSWRVTEGPRGE,inactive
8,EASNCFAIRHFENKFAVETLICHGGNCIWVYWHE,inactive
9,EASNCFAIRHFENKFAVETLICTDYDTCSGLFIM,inactive
10,EASNCFAIRHFENKFAVETLICCRGAGLVSPSVC,inactive
11,EASNCFAIRHFENKFAVETLICLLMFTACALWGV,2.42
12,EASNCFAIRHFENKFAVETLICQNGARRSSDKGR,0.355
13,EASNCFAIRHFENKFAVETLICRETLGFKGVCLW,inactive
14,EASNCFAIRHFENKFAVETLICRLLTK,inactive
15,EASNCFAIRHFENKFAVETLICPGDIDVRRLSDW,inactive
16,EASNCFAIRHFENKFAVETLICVVPGVVR,inactive
17,EASNCFAIRHFENKFAVETLICCYVCVRSLDVWW,5.47
18,EASNCFAIRHFENKFAVETLICAKTSDLWLLLSE,inactive
19,EASNCFAIRHFENKFAVETLICCVEHGKSGTVKV,inactive
20,EASNCFAIRHFENKFAVETLICRDHSTVH,inactive
21,EASNCFAIRHFENKFAVETLICHLMYRPLCRDNV,inactive

# Same assay, conditions: random library (experiment): 2
row,Sequence,amyloid nucleation score
1,EASNCFAIRHFENKFAVETLICWLSACFI,5.06
2,EASNCFAIRHFENKFAVETLICNNLISRRSSNN,inactive
3,EASNCFAIRHFENKFAVETLICILLTLWRVGSEG,inactive
4,EASNCFAIRHFENKFAVETLICRVMAGASSVVCK,inactive
5,EASNCFAIRHFENKFAVETLICFLSIWRMFDMVL,inactive
6,EASNCFAIRHFENKFAVETLICCDKSFRWCRKGG,1.64
7,EASNCFAIRHFENKFAVETLICILKLSSPACAC,inactive
8,EASNCFAIRHFENKFAVETLICQGCWLYGLESFT,6.82
9,EASNCFAIRHFENKFAVETLICVSVYGSVCISLP,0.683
10,EASNCFAIRHFENKFAVETLICWCHISWKLCNRA,inactive
11,EASNCFAIRHFENKFAVETLICLSLMRDTYKANS,inactive
12,EASNCFAIRHFENKFAVETLICLDSHSWAMGRSL,3.4
13,EASNCFAIRHFENKFAVETLICVVVRAVMRLTWV,inactive

# Same assay, conditions: random library (experiment): 3
row,Sequence,amyloid nucleation score
1,EASNCFAIRHFENKFAVETLICHNSVMFTNNRV,inactive
2,EASNCFAIRHFENKFAVETLICHVMDIMSSDVRC,inactive
3,EASNCFAIRHFENKFAVETLICEKAYPESMGWQR,0.702
4,EASNCFAIRHFENKFAVETLICRTECNWLFKVSS,inactive
5,EASNCFAIRHFENKFAVETLICDVAHPVDVESTM,inactive
6,EASNCFAIRHFENKFAVETLICAMVYSRSVVLTG,0.0846
7,EASNCFAIRHFENKFAVETLICFIACTPRFHSSE,inactive
8,EASNCFAIRHFENKFAVETLICLREVVDGTKIGA,inactive
9,EASNCFAIRHFENKFAVETLICMCRMRSHNYSET,5.11
10,EASNCFAIRHFENKFAVETLICLPCRLVR,inactive
11,EASNCFAIRHFENKFAVETLICPRGRCVKSISVT,inactive
12,EASNCFAIRHFENKFAVETLICCEFHVLKRNMSW,3.8
13,EASNCFAIRHFENKFAVETLICIQTMYRVRCSGF,3.81
